The source of these data is article PMC4336329 (PLoS ONE, 2015).

The campaign covered roughly 310,000 compounds. About 2,200 (0.71%) showed an effect of 50% or more. The effect is printed as a negative number. Some of the results follow.

For this test, the target named is human ether-à-go-go-related gene (hERG) potassium channel (human, UniProt Q12809). The experiment in a line: primary screen, population patch clamp on CHO cells stably expressing hERG.
Chain of human ether-à-go-go-related gene (hERG) potassium channel (Q12809 whole entry, looked up): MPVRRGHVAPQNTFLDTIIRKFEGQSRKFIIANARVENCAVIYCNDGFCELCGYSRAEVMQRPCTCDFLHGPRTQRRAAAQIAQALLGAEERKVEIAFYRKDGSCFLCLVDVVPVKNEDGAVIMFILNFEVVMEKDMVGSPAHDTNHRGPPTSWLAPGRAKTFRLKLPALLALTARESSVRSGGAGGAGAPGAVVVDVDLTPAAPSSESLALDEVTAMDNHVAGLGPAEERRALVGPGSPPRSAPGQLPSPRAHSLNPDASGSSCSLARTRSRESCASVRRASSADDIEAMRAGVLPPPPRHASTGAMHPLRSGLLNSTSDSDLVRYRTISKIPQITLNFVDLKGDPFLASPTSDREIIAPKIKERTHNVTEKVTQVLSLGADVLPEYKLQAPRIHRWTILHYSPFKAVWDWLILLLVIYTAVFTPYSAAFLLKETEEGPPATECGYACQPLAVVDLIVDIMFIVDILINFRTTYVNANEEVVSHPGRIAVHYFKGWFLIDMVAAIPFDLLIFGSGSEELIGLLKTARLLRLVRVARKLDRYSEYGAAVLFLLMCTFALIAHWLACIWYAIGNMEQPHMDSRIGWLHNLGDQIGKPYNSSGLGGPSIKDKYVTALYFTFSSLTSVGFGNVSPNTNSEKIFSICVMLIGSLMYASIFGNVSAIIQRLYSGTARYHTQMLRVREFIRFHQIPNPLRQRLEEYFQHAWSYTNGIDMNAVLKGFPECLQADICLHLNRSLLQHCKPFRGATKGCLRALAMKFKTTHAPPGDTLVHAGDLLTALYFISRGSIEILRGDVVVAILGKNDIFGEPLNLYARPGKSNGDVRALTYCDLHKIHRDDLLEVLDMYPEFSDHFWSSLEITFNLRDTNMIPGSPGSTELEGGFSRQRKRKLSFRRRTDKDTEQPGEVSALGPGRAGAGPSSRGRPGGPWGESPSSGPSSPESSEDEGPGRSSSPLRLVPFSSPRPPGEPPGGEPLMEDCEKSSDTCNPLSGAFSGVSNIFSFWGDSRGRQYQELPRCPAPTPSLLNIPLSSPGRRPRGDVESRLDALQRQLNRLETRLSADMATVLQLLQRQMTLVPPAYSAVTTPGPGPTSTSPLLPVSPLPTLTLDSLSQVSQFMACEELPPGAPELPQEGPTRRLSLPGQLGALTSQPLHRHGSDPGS
For the compound `O=C(CCN1C(=O)C2CCCCC2C1=O)Nc1nc(-c2ccccc2)cs1` (stereo not drawn), the “hERG current change (%, negative = inhibition) at 1uM” value was 12.5%.
In the case of `COc1ccc(NC(=O)NC2(C(=O)N3CCN4CCCC4C3)CCCCC2)cc1` (stereo not drawn) it was 14%.
For `Cc1ccc(C)n1-c1ccc(C(=O)NN)cc1` the value was 14.7%.
As to `CC(C)Oc1ccc(CCNC(=O)C2CCC(=O)N(C3CCCCCC3)C2)cc1` (stereo not drawn), the “hERG current change (%, negative = inhibition) at 1uM” value came to 14.3%.
In the case of `CCOC(=O)c1c(CN(C)C)n(C)c2ccc(OC(C)=O)cc12.Cl`, the “hERG current change (%, negative = inhibition) at 1uM” value came to 0.817%.
On to `CC(=O)N(CN1C(=O)c2ccc([N+](=O)[O-])cc2C1=O)c1ccc(F)cc1`, for which the “hERG current change (%, negative = inhibition) at 1uM” value amounted to 9.11%.
Consider `Cc1cc(NC(=O)CSc2nc3ccc(Cl)cc3[nH]2)no1`, for which the “hERG current change (%, negative = inhibition) at 1uM” value was 10.2%.
Take `O=C(COC(=O)c1ccc(Cl)s1)c1ccc[nH]1`: the “hERG current change (%, negative = inhibition) at 1uM” value was found to be 18.3%.
Regarding `Cc1ccc(OC(=O)c2ccc(N3CCOCC3)c([N+](=O)[O-])c2)cc1`, the “hERG current change (%, negative = inhibition) at 1uM” value worked out at 2.85%.
Consider `CNC(=S)NNC(=O)c1sccc1OCc1ccccc1`, for which the “hERG current change (%, negative = inhibition) at 1uM” value is given as 15%.
In the case of `O=c1c(Cc2ccccc2)c(O)ccn1Cc1ccco1`, the “hERG current change (%, negative = inhibition) at 1uM” value is given as 17.2%.
Regarding `COc1ccc(S(=O)(=O)N(C)C)cc1NCC(=O)Nc1cccc2ccccc12`, the “hERG current change (%, negative = inhibition) at 1uM” value is listed as 4.36%.
In the case of `O=C(O)CC(c1ccc(F)cc1F)N1Cc2ccccc2C1=O` (stereo not drawn) it was 18.4%.
For `CCOC(=O)c1oc2cc(C)cc(O)c2c(=O)c1-c1csc(C)n1` the value was 5.58%; for `CS(=O)(=O)Nc1ccc(C(=O)Nc2ccccc2C(=O)N2CCCC2)cc1`, -0.791%; for `O=C(N/N=C/c1ccccn1)c1ccc(Cl)c(Cl)c1`, 5.21%.
In the case of `O=C(O)CCNc1cc(N2CCN(C(=O)c3ccco3)CC2)c2noc3c2c1C(=O)c1ccccc1-3` it was 7.29%; in that of `CC(Sc1nc(N)c2c3c(sc2n1)CSC(C)(C)C3)C(=O)Nc1ccccc1` (stereo not drawn), -3.24%.
Take `CC(Oc1ccc(Cl)cc1Cl)C(=O)NCCCN1CCOCC1` (stereo not drawn): the “hERG current change (%, negative = inhibition) at 1uM” value came to 9.88%.
In the case of `CCCCNC(=O)c1onc(CCl)c1C(=O)OC`, the “hERG current change (%, negative = inhibition) at 1uM” value is on record as 15.7%.
In the case of `CCOC(=O)N1CCN(Cc2ccccc2F)CC1` it was 4.36%; in that of `CC1(C)Cc2ccccc2C(C(=O)c2ccccc2)=N1`, 9.84%.
In the case of `Cc1ccc(N(CC(=O)Nc2cc(Cl)ccc2Oc2ccccc2)S(C)(=O)=O)cc1C`, the “hERG current change (%, negative = inhibition) at 1uM” value was determined as 15.9%.
For `CC(=O)N1N=C(c2ccc([N+](=O)[O-])cc2)CC1c1ccccc1Cl` (stereo not drawn), the “hERG current change (%, negative = inhibition) at 1uM” value is given as -23.7%.
For `O=[N+]([O-])c1c(Nc2ccccc2O)cc(N2CCOCC2)c2nonc12` the value was -6.11%; for `CCOC(=O)C(C)Sc1nnc(NC(=O)c2ccc(C)c([N+](=O)[O-])c2)s1` (stereo not drawn), 8.68%; for `CN(C)c1ccc([C@@H]2[C@@H]([N+](=O)[O-])[C@H]3C=Cc4ccccc4N3[C@H]2C(=O)c2ccc(Cl)cc2)cc1`, 9.55%.
Consider `O=C(NNC(=O)c1ccccc1Cl)c1cc2cc(OC(F)(F)F)ccc2[nH]1`, for which the “hERG current change (%, negative = inhibition) at 1uM” value was -0.449%.
For `Cc1nn(C)c(Oc2ccc(Cl)cc2)c1C=O` the value was 8.9%.
In the case of `Cn1cc(C(=O)N2CCOCC2)c2ccccc21` it was 6.4%; in that of `CCCN1C(=O)NC2(O)C(=O)c3ccccc3C12O` (stereo not drawn), 17.5%.
For `CC(=O)c1ccc(NC(=O)c2ccc([N+](=O)[O-])o2)cc1` the value was 6.69%.
For the compound `COc1ccc(/C=C/c2nc3ccccc3n2Cc2ccc(OC)c(OC)c2)cc1`, the “hERG current change (%, negative = inhibition) at 1uM” value came out at 11.5%.
For `CCN1CCc2c(sc(NC(=O)CN3C(=O)c4ccccc4C3=O)c2C(N)=O)C1.Cl` the value was -3.96%.
For `CC1(OC(=O)C2CCCC2)C(=O)C=C2C=C(c3ccsc3)OC=C2C1=O` (stereo not drawn) the value was 1.32%; for `CCOC(=O)C1(Cc2ccc(O)cc2)NC(c2ccco2)C2C(=O)N(c3ccccc3F)C(=O)C21` (stereo not drawn), 2.14%; for `Cc1noc(C)c1C(=O)OCC(=O)Nc1ccccc1Oc1ccccc1`, 5.73%.
In the case of `CCOc1ccc(-n2c(=S)sc3c(=O)[nH]c(SCC(=O)NCc4ccco4)nc32)cc1` it was 6.51%.
With `Cc1onc(-c2ccccc2)c1C(=O)N1CCCN(C(=O)c2c(-c3ccccc3)noc2C)CC1`, the “hERG current change (%, negative = inhibition) at 1uM” value came to 3.61%.
In the case of `CCOC(=O)N1CCN(CC(=O)Nc2ccc(Oc3ccccc3)cc2)CC1` it was 1.41%; in that of `CCOC(=O)c1cccc(NC(=O)CCc2c(C)nc3ncnn3c2C)c1`, 8.47%.
As for `Cc1onc(-c2c(Cl)cccc2Cl)c1C(=O)N1C(C)CCCC1C` (stereo not drawn), the “hERG current change (%, negative = inhibition) at 1uM” value is given as 3.74%.
In the case of `O=c1ccn(-c2cccc(C(F)(F)F)c2)nc1-c1ccn(-c2ccccc2F)n1` it was -14.6%.
With `O=[N+]([O-])c1nn(-c2cccc(Cl)c2)n(O)c1=NCc1cccnc1`, the “hERG current change (%, negative = inhibition) at 1uM” value was found to be 9.69%.
For `O=C(NCc1ccon1)C1CCC(=O)N(Cc2cccc(C(F)(F)F)c2)C1` (stereo not drawn) the value was 20.8%.
